Measurements published in PubChem BioAssay (NCI).
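Following 48 hours of exposure in 96-well plates, responses at five concentrations were used to interpolate endpoints linearly. GI50 marks 50% less growth. TGI denotes the concentration required for complete inhibition of growth.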

Test system: NCI-H322M lung
Assay: growth of human tumour cells (NCI), 48 h

Compared with `CC(=O)NCC1OC2COC(c3ccccc3)OC2C2N=C(c3ccccc3)OC12` (stereo unspecified), `OCCCCC#Cc1ccccc1C#Cc1ccccc1` is lower in TGI: over 100 µM for the first, 29.3 µM for the second.

`Cc1cn(C2CC(F)C(CO)O2)c(=O)[nH]c1=O` (stereo unspecified) and `Cn1c(=O)[nH]n(-c2ccc3ccccc3c2)c1=O` cannot be ordered by TGI: over 100 µM for the first, over 100 µM for the second.

`NC(=O)CC[C@H]1C(=O)N=C(N)N1C(=O)OCc1ccccc1` and `O=C(O)C(=Cc1ccnc2ccccc12)C(=O)O` cannot be ordered by TGI: over 100 µM for the first, over 100 µM for the second.

`CN(c1ccc(Cl)cc1)S(=O)(=O)c1ccccc1` and `O=C1c2ccccc2C2(c3ccc(Cl)cc3)N[C@@H]3CCCC[C@@H]3N12` (stereo partly specified) cannot be ordered by TGI: over 100 µM for the first, over 100 µM for the second.

`CC(=O)Nc1ccc(C(=O)N2N=C(C)/C(=C/c3ccccc3O)C2=O)cc1` and `CC(=O)Nc1nc(C)c(S(=O)(=O)NC(=O)N2c3ccccc3CCc3ccccc32)s1` cannot be ordered by TGI: over 100 µM for the first, over 100 µM for the second.

`O=C(O)c1cc(Nc2c(O)c3c(c(O)c2Cl)C(=O)C=CC3=O)ccc1O` and `O=C(O)c1cc2ccccc2c(O)c1O` cannot be ordered by TGI: over 10 µM for the first, 27.7 µM for the second.

`C=C(C)[C@@H]1CC[C@]2(C(=O)OC3OC(COC4OC(CO)C(OC5OC(C)C(O)C(O)C5O)C(O)C4O)C(O)C(O)C3O)CC[C@]3(C)[C@H](CC[C@@H]4[C@@]5(C)CC[C@H](O)[C@@](C)(CO)[C@@H]5CC[C@]43C)[C@@H]12` (stereo partly specified) and `CC(=O)OC1C(=O)C(O)C(C)OC1O[C@@H]1C[C@@]2(C)[C@@H]3CC=C4[C@@H](C[C@H](O)C(=O)C4(C)C)[C@]3(C)C(=O)C[C@]2(C)[C@H]1[C@@](C)(O)C(=O)/C=C/C(C)(C)O` (stereo partly specified) cannot be ordered by TGI: over 10 µM for the first, over 10 µM for the second.

Going from `O=C(O)c1ccc2c(c1)Cc1cc([N+](=O)[O-])ccc1-2` to `CCn1c(O)c(C(=O)NC(C)c2ccc([N+](=O)[O-])cc2)c(=O)n(CC)c1=S` (stereo unspecified), the TGI falls from over 100 µM to 12.5 µM.

First: CCCOC1OC(CS(=O)(=O)O)C(OC(C)=O)C(OC(C)=O)C1OC(C)=O (stereo unspecified)
Second: CC[C@]1(O)CC2CN(CCc3c([nH]c4ccccc34)[C@@](C(=O)OC)(c3cc4c(cc3OC)N(C)[C@H]3[C@@](O)(C(=O)OC)[C@H](OC(C)=O)[C@]5(CC)C=CCN6CC[C@]43[C@@H]65)C2)C1 (stereo partly specified)
The TGI of the first is higher: over 100 µM for the first, 48.8 µM for the second.

First: O=Cc1c(-c2cc(O)ccc2O)nc2sccn12
Second: O=C1C(Cl)C(c2cccc(O)c2)N1n1cnc2ccccc2c1=O (stereo unspecified)
The TGI of the first is lower: 65 µM for the first, over 100 µM for the second.

`O=P1(N(CCCl)CCCl)NCCCO1` (stereo unspecified) and `CC(=O)CCCCCCCCCCCC[C@@H]1CC[C@H](C)[C@H](O)N1` cannot be ordered by TGI: over 250 µM for the first, over 100 µM for the second.

Compared with `O=C(NCCNCCO)N/N=C/c1ccccc1`, `OCc1cn(Cc2cccc(Cl)c2)c2ccccc12` is lower in TGI: over 100 µM for the first, 48.6 µM for the second.

Compared with `O=C1c2cccc3cc([N+](=O)[O-])cc(c23)C(=O)N1CCNCCNCCNCCN1C(=O)c2cccc3cc([N+](=O)[O-])cc(c23)C1=O`, `O=C1Sc2cc3ccccc3cc2C(=O)Sc2cc3ccccc3cc21` is higher in TGI: 0.711 µM for the first, over 100 µM for the second.

`Oc1ccc(O)c(Sc2nnc(CCCCCCCCc3nnc(Sc4cc(O)ccc4O)o3)o2)c1` and `CCCCCCCCCC(=O)CC(=O)c1ccc(O)cc1O` cannot be ordered by TGI: over 100 µM for the first, over 100 µM for the second.

`Cc1ccc(C(=O)NN=C(/N=N/c2cccc(C)c2)c2ccc(N(C)C)cc2)cc1` and `CCN(CC)c1ccc(/C=C\c2cc(C)c3cc(C)ccc3n2)cc1` cannot be ordered by TGI: over 100 µM for the first, over 100 µM for the second.

First: CCCCCCCCCCC[N+]1(Cc2ccccc2)CC2CCN(Cc3ccccc3)CC2C1 (stereo unspecified)
Second: COc1ccccc1-[n+]1cc(-c2ccc(-c3ccccc3)cc2)n2c1CCCCC2
The TGI of the first is 4.8-fold lower: 2.9 µM for the first, 13.9 µM for the second.

First: CC(=O)Nc1ccc(/C=C/[N+](=O)[O-])cc1
Second: N#CC(=S)Nc1cccc(Cl)c1
The TGI of the first is lower: 24.9 µM for the first, over 100 µM for the second.

First: C#Cc1cccc(Nc2ncnc3cc(OCCOC)c(OCCOC)cc23)c1
Second: COc1cc(Nc2nc3cc(N)cc(N)c3nc2-c2ccccc2)cc(OC)c1
The TGI of the first is 3.3-fold lower: 17.7 µM for the first, 59.2 µM for the second.

`C[C@]12CCC3[C@@H](C[C@@H]4SC(Nc5ccccc5)=N[C@@]45CC(=O)CC[C@]35C)[C@@H]1CCC2=O` (stereo partly specified) and `Cc1cc(C)c(C#N)c(SC(=S)NC(=O)c2ccccc2)n1` cannot be ordered by TGI: over 100 µM for the first, over 100 µM for the second.

Going from `O=C1/C(=C(/Br)I)c2ccccc2-c2ccccc21` to `CN(C)CCCn1c2c(c3cnccc3c1=O)C(=O)c1ccccc1-2`, the TGI falls from 27.2 µM to 3.03 µM (9-fold).

`Clc1ccc(Cl)c2[s+]snc12` and `CCOc1ccc(N=Cc2cccc3cccnc23)cc1` cannot be ordered by TGI: over 100 µM for the first, over 100 µM for the second.

First: CC(CN(CP(=O)([O-])[O-])CP(=O)([O-])[O-])N(CP(=O)([O-])[O-])CP(=O)([O-])[O-].N.N.[Pt+2] (stereo unspecified)
Second: CCOC(=O)COC1=Nc2cc(OC)c(OC)c3nc(Cl)cc(c23)C1=O
The TGI of the first is higher: over 100 µM for the first, 25.1 µM for the second.

With `OC1(C(O)(c2ccc(-c3ccccc3)cc2)c2ccc(-c3ccccc3)cc2)CCCCC1` the TGI was over 100 µM.

Going from `Cc1cn(C2CC(F)C(CO)O2)c(=O)[nH]c1=O` (stereo unspecified) to `C[C@]12CCC3[C@@H](C[C@@H]4SC(Nc5ccccc5)=N[C@@]45CC(=O)CC[C@]35C)[C@@H]1CCC2=O` (stereo partly specified), the GI50 falls from over 100 µM to 50.5 µM.

Compared with `O=Cc1c(-c2cc(O)ccc2O)nc2sccn12`, `CN(C)CCCn1c2c(c3cnccc3c1=O)C(=O)c1ccccc1-2` is 48-fold lower in GI50: 22.9 µM for the first, 0.479 µM for the second.

`OCc1cn(Cc2cccc(Cl)c2)c2ccccc12` and `OCCCCC#Cc1ccccc1C#Cc1ccccc1` are within 1.5-fold of each other in GI50: 11.5 µM for the first, 14.9 µM for the second.

Compared with `CC[C@]1(O)CC2CN(CCc3c([nH]c4ccccc34)[C@@](C(=O)OC)(c3cc4c(cc3OC)N(C)[C@H]3[C@@](O)(C(=O)OC)[C@H](OC(C)=O)[C@]5(CC)C=CCN6CC[C@]43[C@@H]65)C2)C1` (stereo partly specified), `COc1ccccc1-[n+]1cc(-c2ccc(-c3ccccc3)cc2)n2c1CCCCC2` is higher in GI50: under 0.005 µM for the first, 1.83 µM for the second.

First: CCN(CC)c1ccc(/C=C\c2cc(C)c3cc(C)ccc3n2)cc1
Second: COc1cc(Nc2nc3cc(N)cc(N)c3nc2-c2ccccc2)cc(OC)c1
The GI50 of the first is 6.3-fold higher: 87 µM for the first, 13.9 µM for the second.

Work on `CC(CN(CP(=O)([O-])[O-])CP(=O)([O-])[O-])N(CP(=O)([O-])[O-])CP(=O)([O-])[O-].N.N.[Pt+2]` (stereo unspecified) yielded a GI50 of over 100 µM.
